Source: article PMC8965563, “PaP1, a Broad-Spectrum Lysin-Derived Cationic Peptide to Treat Polymicrobial Skin Infections” (Frontiers in Microbiology, 2022)

Test system: P. aeruginosa strain NR-51517 (MDR)
Conditions: ~100-fold more bacteria per wound (controls ~10^8 CFU/g tissue)

CNC(C)C1CCC(N)C(OC2C(N)CC(N)C(OC3OCC(C)(O)C(NC)C3O)C2O)O1 (centres unmarked) [gentamicin]
bacterial counts vs Aquaphor-treated controls (0.1% (wt/wt) gentamicin monotherapy in Aquaphor): comparable | decrease of bacterial load (1% (wt/wt) gentamicin in Aquaphor): 1.3 log10-fold
